# Whole data set: some 33,000 sequences, median “E-score (-0.5 to 0.5)” near -0.054, cut for the highest 2% near 0.35. The list shows a part of the results.
# Target: T1, Stb5 (UniProt P38699)
# T1 sequence: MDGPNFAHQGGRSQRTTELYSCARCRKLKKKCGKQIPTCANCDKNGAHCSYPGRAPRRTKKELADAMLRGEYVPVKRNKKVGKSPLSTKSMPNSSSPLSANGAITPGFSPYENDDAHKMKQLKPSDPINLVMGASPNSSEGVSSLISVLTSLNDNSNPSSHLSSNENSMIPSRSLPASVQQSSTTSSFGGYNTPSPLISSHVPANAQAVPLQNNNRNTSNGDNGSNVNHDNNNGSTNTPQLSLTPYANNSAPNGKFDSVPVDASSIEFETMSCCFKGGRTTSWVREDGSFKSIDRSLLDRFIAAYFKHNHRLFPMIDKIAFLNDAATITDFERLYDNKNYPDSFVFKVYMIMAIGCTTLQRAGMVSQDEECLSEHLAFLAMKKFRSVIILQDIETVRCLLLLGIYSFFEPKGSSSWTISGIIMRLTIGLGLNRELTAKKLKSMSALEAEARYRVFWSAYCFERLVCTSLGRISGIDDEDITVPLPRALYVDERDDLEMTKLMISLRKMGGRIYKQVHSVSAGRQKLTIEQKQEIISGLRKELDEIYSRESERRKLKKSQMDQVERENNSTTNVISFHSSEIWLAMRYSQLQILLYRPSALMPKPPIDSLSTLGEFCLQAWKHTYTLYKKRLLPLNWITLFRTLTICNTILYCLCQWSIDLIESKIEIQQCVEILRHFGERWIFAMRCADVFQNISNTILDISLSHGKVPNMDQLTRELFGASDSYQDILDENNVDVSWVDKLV
# Assay: PBM E-score (8-mer binding enrichment) (E-score (-0.5 to 0.5)); higher = stronger / more preferred TF binding; most listed sequences are background and not binding sites
# Conditions: protein concentration: 200 nM; construct: GST-full length
# Method: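 Universal 'all 10-mer' protein binding microarrays (Agilent AMADID 015681) probed with GST-tagged S. cerevisiae TFs (full-length or DBD) made by in vitro transcription/translation (PURExpress), about 100-200 nM. Bound TF was detected with fluorescent anti-GST. Each ungapped 8-mer (which stands for itself and its reverse complement) is scored by the PBM enrichment score (E-score), a modified Wilcoxon-Mann-Whitney statistic from -0.5 to +0.5, computed with the Universal PBM Analysis Suite. Scale: above 0.35 generally sequence-specific binding.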
row,Sequence,PBM E-score
1,CCATTTAG,-0.132
2,ATCCTGGG,-0.243
3,TCTTGTAA,-0.0733
4,CACCTGGA,-0.251
5,ACGGAAGG,0.08
6,CTCGGTTA,0.0761
7,CTTTAATC,0.00719
8,CAAGGGAA,-0.128
9,GACTGTCA,-0.046
10,TATAGCAA,0.0118
11,CAGAAGTC,-0.0591
12,GTCTTAAA,0.179
13,ACCGCGCC,0.288
14,CACGAAAG,0.0262
15,AGTGAACC,-0.181
16,CATACGTC,0.147
17,GGCGTCCC,0.132
18,ATAATCTA,0.0554
19,CGCCCTAA,0.0416
20,CAGCCAGC,-0.167
21,ATAAGACC,0.397
22,ACCGGCCT,0.22
23,AACCTTGA,-0.247
24,CGCCGGAA,0.168

row,Sequence,PBM E-score
1,GACACCAA,-0.124
2,CTGTCCCC,-0.0582
3,ATCCCCGC,0.453
4,AAGCCAGG,-0.0808
5,GATTATAC,0.138
6,ATAGGTGA,-0.0836
7,CTACTCGC,-0.149
8,TGCTGCAA,-0.177
9,CCGACCAG,0.318
10,CCGGAACC,0.217
11,CAGAGCAA,-0.231
12,CTGGTGCA,-0.122
13,CATGACTC,-0.0657
14,TCCCCCAA,-0.235
15,TGGCGGAA,0.176
16,CTGTGATC,-0.187
17,ACCGGAAA,0.221
18,GGATTTAA,0.346
19,AAATCTAT,0.00591
20,GCCCATAC,-0.237
21,CTAAGCGC,0.0471
22,CAGCCTGC,-0.236
23,ACAAGCAA,-0.0486
24,AAGGACGG,0.162

row,Sequence,PBM E-score
1,CGATGTAC,0.131
2,CCGTTCCG,0.295
3,GTCTACAA,-0.349
4,AGACCCAG,-0.291
5,ACCCGCCA,0.27
6,AGCTGCCG,0.168
7,ACCCCAGA,-0.232
8,GAATAATC,-0.0986
9,CTCGGACC,0.21
10,CAGATTAA,0.0823
11,GTCTGAAA,-0.138
12,AACCGTAA,0.0629
13,CTTTGTTC,0.101
14,GGCGCCTA,-0.013
15,AATACGGA,0.183
16,TAGAGCTA,-0.218
17,AACGAGAG,-0.107
18,GGTCTCAC,0.18
19,ATGGTACG,0.0153
20,CCCACGGA,0.199
21,AGATTAAT,0.0151
22,AAGGGTGT,-0.0235
23,AATTCGTG,-0.123
24,ATGCACAC,-0.0814

row,Sequence,PBM E-score
1,CAAAGCGA,-0.17
2,CCTTGCTC,-0.0279
3,CATGATAG,-0.174
4,CGAACTTC,-0.144
5,GGAATGCC,0.0678
6,AACTTACT,-0.131
7,ACGCCAGG,-0.0421
8,CAGCTAAC,-0.155
9,CCGATGTC,0.278
10,TCATCTCA,-0.0497
11,ATATCTTA,-0.0771
12,ACACTGGG,-0.177
13,ACCTAGGA,-0.139
14,GCCGGCAA,0.31
15,CTATTGTA,0.0558
16,AAAGGGAG,-0.275
17,CGCTTGTA,0.151
18,GAGTCACC,0.0473
19,CCCATGGA,-0.122
20,CATTGAAA,0.0729
21,AGCTGTAC,-0.123
22,ATTCATGG,-0.0559
